First the molecules themselves.
T1: RBFOX1 RRM RbFoxmut (Fox-RRM*) (Homo sapiens, UniProt Q9NWB1 109-208, R118D;E147R;N151S;E152T)
T1 sequence: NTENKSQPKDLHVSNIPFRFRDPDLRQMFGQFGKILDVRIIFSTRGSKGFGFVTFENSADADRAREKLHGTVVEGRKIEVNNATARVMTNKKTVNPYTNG

B1: UCCCAAU (DNA:RNA)
RNA: GGGAGACCGGAAUUCAGAUUGUCCUCCCAAUUUAAAUCCCGUCGUAGCCACCA
DNA 1: CAATCTGAATTCCGGTCTCCC
DNA 2: TGGTGGCTACGACGGGATT
B2: GCUGAGA (DNA:RNA)
RNA: B1 RNA with U25G, C27U, C28G, A30G, U31A
DNA 1: CAATCTGAATTCCGGTCTCCC
DNA 2: TGGTGGCTACGACGGGATT
B3: UAGGAGG (DNA:RNA)
RNA: B1 RNA with C26A, C27G, C28G, A30G, U31G
DNA 1: CAATCTGAATTCCGGTCTCCC
DNA 2: TGGTGGCTACGACGGGATT
B4: GUGUGGA (DNA:RNA)
RNA: GGGAGACCGGAAUUCAGAUUGUCCGUGUGGAUUAAAUCCCGUCGUAGCCACCA
DNA 1: CAATCTGAATTCCGGTCTCCC
DNA 2: TGGTGGCTACGACGGGATT
B5: AUUCUAC (DNA:RNA)
RNA: B1 RNA with U25A, C26U, C27U, A29U, U31C
DNA 1: CAATCTGAATTCCGGTCTCCC
DNA 2: TGGTGGCTACGACGGGATT
B6: UAGCUCA (DNA:RNA)
RNA: B4 RNA with G25U, U26A, U28C, G29U, G30C
DNA 1: CAATCTGAATTCCGGTCTCCC
DNA 2: TGGTGGCTACGACGGGATT
B7: AAAGAGC (DNA:RNA)
RNA: B4 RNA with G25A, U26A, G27A, U28G, G29A, A31C
DNA 1: CAATCTGAATTCCGGTCTCCC
DNA 2: TGGTGGCTACGACGGGATT
B8: CGAAGUA (DNA:RNA)
RNA: B4 RNA with G25C, U26G, G27A, U28A, G30U
DNA 1: CAATCTGAATTCCGGTCTCCC
DNA 2: TGGTGGCTACGACGGGATT
B9: AACAAGC (DNA:RNA)
RNA: B1 RNA with U25A, C26A, C28A, A30G, U31C
DNA 1: CAATCTGAATTCCGGTCTCCC
DNA 2: TGGTGGCTACGACGGGATT
B10: AUGGUUG (DNA:RNA)
RNA: B4 RNA with G25A, U28G, G29U, G30U, A31G
DNA 1: CAATCTGAATTCCGGTCTCCC
DNA 2: TGGTGGCTACGACGGGATT
B11: UCUGACC (DNA:RNA)
RNA: B1 RNA with C27U, C28G, A30C, U31C
DNA 1: CAATCTGAATTCCGGTCTCCC
DNA 2: TGGTGGCTACGACGGGATT
B12: UUUCCAA (DNA:RNA)
RNA: B1 RNA with C26U, C27U, A29C, U31A
DNA 1: CAATCTGAATTCCGGTCTCCC
DNA 2: TGGTGGCTACGACGGGATT
B13: AUUAAAU (DNA:RNA)
RNA: B1 RNA with U25A, C26U, C27U, C28A
DNA 1: CAATCTGAATTCCGGTCTCCC
DNA 2: TGGTGGCTACGACGGGATT
B14: GACCGAG (DNA:RNA)
RNA: B1 RNA with U25G, C26A, A29G, U31G
DNA 1: CAATCTGAATTCCGGTCTCCC
DNA 2: TGGTGGCTACGACGGGATT
B15: AAUUAGA (DNA:RNA)
RNA: B4 RNA with G25A, U26A, G27U, G29A
DNA 1: CAATCTGAATTCCGGTCTCCC
DNA 2: TGGTGGCTACGACGGGATT
B16: CGGAAUG (DNA:RNA)
RNA: B4 RNA with G25C, U26G, U28A, G29A, G30U, A31G
DNA 1: CAATCTGAATTCCGGTCTCCC
DNA 2: TGGTGGCTACGACGGGATT
B17: GAGCCGA (DNA:RNA)
RNA: B4 RNA with U26A, U28C, G29C
DNA 1: CAATCTGAATTCCGGTCTCCC
DNA 2: TGGTGGCTACGACGGGATT
B18: UCACGUG (DNA:RNA)
RNA: B1 RNA with C27A, A29G, A30U, U31G
DNA 1: CAATCTGAATTCCGGTCTCCC
DNA 2: TGGTGGCTACGACGGGATT
B19: GCCCACG (DNA:RNA)
RNA: B1 RNA with U25G, A30C, U31G
DNA 1: CAATCTGAATTCCGGTCTCCC
DNA 2: TGGTGGCTACGACGGGATT
B20: GUACUGU (DNA:RNA)
RNA: B4 RNA with G27A, U28C, G29U, A31U
DNA 1: CAATCTGAATTCCGGTCTCCC
DNA 2: TGGTGGCTACGACGGGATT
B21: UCUGCUU (DNA:RNA)
RNA: B1 RNA with C27U, C28G, A29C, A30U
DNA 1: CAATCTGAATTCCGGTCTCCC
DNA 2: TGGTGGCTACGACGGGATT
B22: CGUAUAU (DNA:RNA)
RNA: B1 RNA with U25C, C26G, C27U, C28A, A29U
DNA 1: CAATCTGAATTCCGGTCTCCC
DNA 2: TGGTGGCTACGACGGGATT
B23: UCGUGCC (DNA:RNA)
RNA: B4 RNA with G25U, U26C, G30C, A31C
DNA 1: CAATCTGAATTCCGGTCTCCC
DNA 2: TGGTGGCTACGACGGGATT
B24: CUGCCCG (DNA:RNA)
RNA: B4 RNA with G25C, U28C, G29C, G30C, A31G
DNA 1: CAATCTGAATTCCGGTCTCCC
DNA 2: TGGTGGCTACGACGGGATT
B25: AAUCGGC (DNA:RNA)
RNA: B4 RNA with G25A, U26A, G27U, U28C, A31C
DNA 1: CAATCTGAATTCCGGTCTCCC
DNA 2: TGGTGGCTACGACGGGATT
B26: CGCAUCC (DNA:RNA)
RNA: B1 RNA with U25C, C26G, C28A, A29U, A30C, U31C
DNA 1: CAATCTGAATTCCGGTCTCCC
DNA 2: TGGTGGCTACGACGGGATT
B27: UUACUAA (DNA:RNA)
RNA: B1 RNA with C26U, C27A, A29U, U31A
DNA 1: CAATCTGAATTCCGGTCTCCC
DNA 2: TGGTGGCTACGACGGGATT
B28: UCGACGU (DNA:RNA)
RNA: B1 RNA with C27G, C28A, A29C, A30G
DNA 1: CAATCTGAATTCCGGTCTCCC
DNA 2: TGGTGGCTACGACGGGATT
B29: GCAAACU (DNA:RNA)
RNA: B1 RNA with U25G, C27A, C28A, A30C
DNA 1: CAATCTGAATTCCGGTCTCCC
DNA 2: TGGTGGCTACGACGGGATT
B30: AGACGGC (DNA:RNA)
RNA: B4 RNA with G25A, U26G, G27A, U28C, A31C
DNA 1: CAATCTGAATTCCGGTCTCCC
DNA 2: TGGTGGCTACGACGGGATT
B31: UCGAAUU (DNA:RNA)
RNA: B1 RNA with C27G, C28A, A30U
DNA 1: CAATCTGAATTCCGGTCTCCC
DNA 2: TGGTGGCTACGACGGGATT

Substitutions are numbered along the chain they refer to; changes in the protein carry UniProt numbers. This is one part of the list.

Results on 31 molecules are retold here after paper PMC9911399, “Two distinct binding modes provide the RNA-binding protein RbFox with extraordinary sequence specificity”.

In this experiment the target is T1, RBFOX1 RRM RbFoxmut (Fox-RRM*). As to the kind of experiment: EMSA; HiTS-Eq, 1 nM pool, 10 min; buffer printed only for the single-RNA assays: 10 mM Tris pH 7.5, 150 mM NaCl, 3.4 mM EDTA, 0.001% NP-40, 30 C. To be noted: tags: His6 N-terminal (pET28a); label: 5' 32P. In a few lines:
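These values rest on relative association constants, computed from read-count changes of each RNA species versus the control reaction and normalised to the cognate motif. Reads came from free RNA recovered by 8% native PAGE after purified RbFox RRM (wild type or mutant) at increasing concentrations was equilibrated for 10 min in 50 µL with 1 nM of a 5′-radiolabelled pool with 7 randomized nucleotides and DNA-annealed flanks.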
Background: Mobility shift assays separate free from complexed probe on a gel.
With B1, the binding signal was 0.102 KA relative to UGCAUGU.

On to B2, for which the binding signal is 0.0905 KA relative to UGCAUGU.

In the case of B3, the binding signal was 0.102 KA relative to UGCAUGU. As to B4, the binding signal was 0.094 KA relative to UGCAUGU.

Consider B5, for which the binding signal is 0.12 KA relative to UGCAUGU.

B6: the binding signal is 0.108 KA relative to UGCAUGU.

B7: the binding signal was 0.071 KA relative to UGCAUGU. To B8 belongs 0.153 KA relative to UGCAUGU; to B9, 0.0353 KA relative to UGCAUGU; to B10, 0.48 KA relative to UGCAUGU. Next, B11: 0.0992 KA relative to UGCAUGU; B12: 0.0765 KA relative to UGCAUGU. B13: the binding signal was 0.095 KA relative to UGCAUGU. For the molecule B14, the binding signal was 0.141 KA relative to UGCAUGU. Regarding B15, the binding signal is 0.0645 KA relative to UGCAUGU. With B16, the binding signal is 1.43 KA relative to UGCAUGU. For the molecule B17, the binding signal is 0.0733 KA relative to UGCAUGU. Next, B18: 0.128 KA relative to UGCAUGU; B19: 0.108 KA relative to UGCAUGU. As to B20, the binding signal was 0.134 KA relative to UGCAUGU. Next, B21: 0.0935 KA relative to UGCAUGU; B22: 0.12 KA relative to UGCAUGU.

Regarding B23, the binding signal is 0.313 KA relative to UGCAUGU.

For B24, the binding signal is 0.102 KA relative to UGCAUGU. Next, B25: 0.0881 KA relative to UGCAUGU. On to B26, for which the binding signal is 0.337 KA relative to UGCAUGU. Next, B27: 0.102 KA relative to UGCAUGU; B28: 0.0739 KA relative to UGCAUGU; B29: 0.0551 KA relative to UGCAUGU. Next, B30: 0.1 KA relative to UGCAUGU. For B31, the binding signal was 0.0823 KA relative to UGCAUGU.
